Source: paper PMC4336329 (PLoS ONE, 2015)
Hit rate of the full screen: of about 310,000 compounds, about 14,000 (4.5%) showed an effect of 50% or more. Effects have a minus sign here. Some of the results follow.

Biological target: human ether-à-go-go-related gene (hERG) potassium channel (human, UniProt Q12809)
Assay: primary screen, population patch clamp on CHO cells stably expressing hERG
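Also: peak tail current of the secondary pulse compared with the same well before compound.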

Sequence of human ether-à-go-go-related gene (hERG) potassium channel (Q12809 whole entry, looked up): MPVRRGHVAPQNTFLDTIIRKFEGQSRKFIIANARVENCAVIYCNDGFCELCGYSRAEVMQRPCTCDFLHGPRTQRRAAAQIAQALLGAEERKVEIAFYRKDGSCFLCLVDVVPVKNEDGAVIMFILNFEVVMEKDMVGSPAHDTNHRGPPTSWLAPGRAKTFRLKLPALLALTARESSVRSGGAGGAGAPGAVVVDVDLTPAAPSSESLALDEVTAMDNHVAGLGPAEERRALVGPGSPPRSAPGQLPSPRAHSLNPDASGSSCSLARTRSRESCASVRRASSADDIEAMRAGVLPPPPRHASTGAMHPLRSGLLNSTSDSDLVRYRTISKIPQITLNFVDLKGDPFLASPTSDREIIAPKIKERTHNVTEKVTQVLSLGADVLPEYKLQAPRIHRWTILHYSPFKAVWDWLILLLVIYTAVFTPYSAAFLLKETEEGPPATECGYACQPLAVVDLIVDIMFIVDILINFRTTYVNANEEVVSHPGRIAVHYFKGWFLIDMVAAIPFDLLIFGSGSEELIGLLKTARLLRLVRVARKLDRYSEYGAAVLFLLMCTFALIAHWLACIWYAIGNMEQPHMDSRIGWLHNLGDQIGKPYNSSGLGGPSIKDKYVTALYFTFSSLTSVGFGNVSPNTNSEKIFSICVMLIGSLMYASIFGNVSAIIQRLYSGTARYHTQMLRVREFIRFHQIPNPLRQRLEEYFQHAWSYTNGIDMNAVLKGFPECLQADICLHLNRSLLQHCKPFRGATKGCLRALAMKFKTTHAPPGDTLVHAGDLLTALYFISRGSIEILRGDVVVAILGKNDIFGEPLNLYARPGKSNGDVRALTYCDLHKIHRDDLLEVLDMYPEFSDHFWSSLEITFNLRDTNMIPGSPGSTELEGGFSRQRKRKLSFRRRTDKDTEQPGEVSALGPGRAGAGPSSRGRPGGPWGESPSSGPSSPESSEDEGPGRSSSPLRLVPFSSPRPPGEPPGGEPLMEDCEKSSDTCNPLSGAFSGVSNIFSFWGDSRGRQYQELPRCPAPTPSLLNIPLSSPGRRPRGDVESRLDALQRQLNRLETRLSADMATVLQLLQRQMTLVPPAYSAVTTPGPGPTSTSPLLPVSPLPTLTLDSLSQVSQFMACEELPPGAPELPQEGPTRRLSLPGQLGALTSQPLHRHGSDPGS

Compared with `CCOc1ccc(-n2c(O)c(C=Nc3ccc(N4CCOCC4)cc3)c(=O)[nH]c2=O)cc1`, `COc1ccc(Cn2nnnc2C(c2cc3cccc(C)c3[nH]c2=O)N2CCOCC2)cc1` (stereo not shown) is lower in “hERG current change (%, negative = inhibition) at 10uM” value: -16.2% for the first, -43.6% for the second.

Compared with `COCCCNC(=S)N1CCC(C(=O)c2ccc(Cl)cc2)CC1`, `COc1cccc(C(CNC(=O)C2CCN(C(=O)Nc3ccccc3)CC2)N(C)C)c1` (stereo not shown) is higher in “hERG current change (%, negative = inhibition) at 10uM” value: -6.91% for the first, -6.05% for the second.

Going from `CCOC(=O)N1CCC(NC(=O)C2CCN(C(=O)c3cc4oc(C)cc4n3Cc3c(F)cccc3Cl)CC2)CC1` to `CCOC(=O)c1c(NC(=O)c2ccco2)sc(C(=O)N2CCCC2)c1C`, the “hERG current change (%, negative = inhibition) at 10uM” value rises from -20.3% to -1.58%.

Compared with `COCCCNS(=O)(=O)c1ccc2c3c(cccc13)C(=O)S2`, `CN(C)CC/C=C1/c2cc(F)ccc2Sc2ccc(Cl)cc21.Cl` is higher in “hERG current change (%, negative = inhibition) at 10uM” value: -45.8% for the first, -34.5% for the second.

First: CN1C(=O)[C@H]2[C@@H](c3ccc(F)cc3)N3C(=O)c4ccccc4NC(=O)[C@@]3(C)[C@H]2C1=O
Second: Cc1cc(Cl)ccc1C1=CC(=O)C[C@H](c2ccc(F)cc2)C1
The “hERG current change (%, negative = inhibition) at 10uM” value of the first is lower: -39.1% for the first, 15.7% for the second.

Compared with `Cc1ccc(SCC(=O)Nc2ccccc2C(=O)N2CCOCC2)cc1`, `Cc1ccc(NC(=O)N2CCCc3ccccc32)cc1` is higher in “hERG current change (%, negative = inhibition) at 10uM” value: -10.9% for the first, -6.25% for the second.

First: O=C(Nc1cccc(Cl)c1)c1ccc(F)c(S(=O)(=O)N2CCN(c3ccccn3)CC2)c1
Second: CCCN(CC(=O)Nc1ccccc1C)C(=O)c1ccc(Cl)c(S(=O)(=O)N2CCCC2)c1
The “hERG current change (%, negative = inhibition) at 10uM” value of the first is lower: -11.2% for the first, -4.26% for the second.

First: Cc1sc2nc(SCC(=O)NCCCO)n(-c3ccccc3)c(=O)c2c1C
Second: Cc1ccc(-n2c(SCC(=O)N/N=C/c3ccccc3OCC(=O)O)nc3ccccc3c2=O)cc1
The “hERG current change (%, negative = inhibition) at 10uM” value of the first is lower: 12% for the first, 13.6% for the second.

Going from `CC(NC(=O)CN(C)S(=O)(=O)c1ccc2c(c1)c(=O)n(C)c(=O)n2C)c1ccccc1` (stereo not shown) to `CN(C)C(CNC(=O)c1coc2ccccc2c1=O)c1ccccc1` (stereo not shown), the “hERG current change (%, negative = inhibition) at 10uM” value rises from -0.312% to 4.85%.

Compared with `COc1ccccc1NC(=O)CSc1nnc(C)n1CCc1ccccc1`, `CCSc1ccccc1C(=O)n1nnc2ccccc21` is higher in “hERG current change (%, negative = inhibition) at 10uM” value: -14.3% for the first, 5.18% for the second.

First: Cc1ccccc1N(CC(=O)NC(C)(C)C)C(=O)CS(=O)CC(=O)Nc1ccc2c(c1)OCO2 (stereo not shown)
Second: CCc1cccc(C)c1NC(=O)CC1Oc2ccc(C)cc2NC1=O (stereo not shown)
The “hERG current change (%, negative = inhibition) at 10uM” value of the first is lower: 6.63% for the first, 17.6% for the second.

Compared with `CCOC(=O)Nc1cccnc1Sc1ccc(Cl)cc1`, `O=C(Nc1ccccc1Cl)Oc1ccc(Cl)cc1Cl` is higher in “hERG current change (%, negative = inhibition) at 10uM” value: -32% for the first, 12.8% for the second.

Going from `O=[N+]([O-])c1cnn(-c2nc(-c3cccs3)cc(C(F)(F)F)n2)c1` to `O=C1c2ccc([N+](=O)[O-])cc2S(=O)(=O)N1Cc1ccccc1`, the “hERG current change (%, negative = inhibition) at 10uM” value rises from -22.5% to 1.3%.

Going from `Cc1c(NC(=O)c2cccc(NC(=O)c3ccco3)c2)cccc1C(=O)O` to `CC(NC(=O)c1ccccc1NC(=O)c1ccco1)c1ccccc1` (stereo not shown), the “hERG current change (%, negative = inhibition) at 10uM” value falls from 7.41% to 0.708%.

First: O=C(CCN1C(=O)/C(=C/c2ccccc2)SC1=S)Nc1ccccn1
Second: O=C(O)CCCCCN1C(=O)/C(=C\c2ccncc2)SC1=S
The “hERG current change (%, negative = inhibition) at 10uM” value of the first is higher: 12.9% for the first, 4.79% for the second.

First: Cc1ccc(N2CC(C(=O)NCc3cccnc3)CC2=O)cc1 (stereo not shown)
Second: COc1cccc(N2CC(C(=O)NC3CCCCC3)CC2=O)c1 (stereo not shown)
The “hERG current change (%, negative = inhibition) at 10uM” value of the first is lower: -11.9% for the first, 2.57% for the second.

First: Cc1cccc(C(=O)NNC(=S)NC(=O)c2cccs2)c1
Second: COc1ccc(/C=C/C(=O)NC(=S)NNC(=O)c2ccco2)cc1
The “hERG current change (%, negative = inhibition) at 10uM” value of the first is higher: 20.6% for the first, 13.8% for the second.

Compared with `Cc1cc(Oc2ccccc2)nc(N)n1`, `Cc1cc(Nc2cccc(F)c2)n2c(n1)nc1ccccc12` is higher in “hERG current change (%, negative = inhibition) at 10uM” value: -0.0794% for the first, 3.44% for the second.

Going from `Cc1ccc(Sc2nc([N+](=O)[O-])nn2C)cc1` to `Cc1ccc2nc(N/N=C\c3ccc([N+](=O)[O-])o3)nc(-c3ccccc3)c2c1`, the “hERG current change (%, negative = inhibition) at 10uM” value falls from 0.903% to -72.6%.

First: COc1ccc(Nc2nc(C(=O)N3CCc4cc(OC)c(OC)cc4C3)cs2)cc1
Second: COc1ccc(NC(=O)c2cc(-c3ccccc3Cl)on2)cc1OC
The “hERG current change (%, negative = inhibition) at 10uM” value of the first is lower: -13.7% for the first, 4.5% for the second.

Compared with `CC(C)=Cc1c(O)nc2ccccn2c1=O`, `O=C(N/N=C/c1ccc2cccnc2c1)c1ccco1` is lower in “hERG current change (%, negative = inhibition) at 10uM” value: 26.6% for the first, 7.35% for the second.

Going from `CCN1C(N(C)C)=NC[C@@H]1Cc1ccccc1` to `Cc1cc(NC(=O)c2ccc3c(c2)C(=O)N(Cc2ccccc2)C3=O)no1`, the “hERG current change (%, negative = inhibition) at 10uM” value rises from -1.57% to 15.3%.

Going from `NS(=O)(=O)c1cccc(NS(=O)(=O)c2ccc(/C=C/C(=O)OCC(=O)c3ccc(Br)cc3)cc2)c1` to `O=C(O)CCc1ccc(S(=O)(=O)Nc2ccccc2C(=O)NCCc2ccccc2)cc1`, the “hERG current change (%, negative = inhibition) at 10uM” value falls from 16.9% to 14.8%.

First: COc1ccc(CNc2cccc3[nH]c(C(F)(F)F)nc23)cc1.Cl
Second: Cc1onc(-c2ccccc2)c1C(=O)NCc1ccc(F)cc1
The “hERG current change (%, negative = inhibition) at 10uM” value of the first is lower: -13.3% for the first, -1.74% for the second.

First: C/C(=N\OC(=O)c1ccc(F)cc1)c1nccs1
Second: CCOc1ncccc1C(=O)OCc1c(F)cccc1Cl
The “hERG current change (%, negative = inhibition) at 10uM” value of the first is lower: 3.53% for the first, 9.23% for the second.

Going from `CCN1CCN(C(=O)C2CCCN(S(=O)(=O)c3ccc(OC)c(OC)c3)C2)CC1` (stereo not shown) to `O=S(=O)(c1ccc(-c2ccno2)s1)N1CCCCC1`, the “hERG current change (%, negative = inhibition) at 10uM” value falls from 13.9% to 0.962%.

Compared with `O=C(Nc1ccc(CN2CCCCC2)cc1)Nc1ccc(Br)cc1Cl`, `Cn1c(=O)n(C)c2cc(C(=O)Nc3ccc(Br)cc3)ccc21` is higher in “hERG current change (%, negative = inhibition) at 10uM” value: 0.205% for the first, 14.5% for the second.

First: CC(NC(=O)Nc1ccccn1)N1C(=O)C2C3C=CC(C3)C2C1=O (stereo not shown)
Second: Cc1ccc(C2c3sc(=O)[nH]c3SC3C4CC(C5C(=O)N(C(C)C(=O)O)C(=O)C45)C23)cc1 (stereo not shown)
The “hERG current change (%, negative = inhibition) at 10uM” value of the first is lower: 6.12% for the first, 12.3% for the second.

Compared with `COC(=O)c1ccc(NC(=O)CN2CCN(CC#N)CC2)cc1.O=C(O)C(=O)O`, `COC(=O)c1cc(NC(=O)Nc2cc(OC)ccc2OC)cc(C(=O)OC)c1` is lower in “hERG current change (%, negative = inhibition) at 10uM” value: 3.24% for the first, -10% for the second.

Compared with `Cc1ccc(C(=O)NCCc2cccc(Cl)c2)cc1[N+](=O)[O-]`, `Cl.N=c1sccn1CC(=O)Nc1cc(Cl)ccc1Oc1ccccc1` is lower in “hERG current change (%, negative = inhibition) at 10uM” value: -29.7% for the first, -75.2% for the second.

First: CC(C)CC(COCc1ccc(Cl)cc1)N1CCN(C(=O)c2cccc(C(F)(F)F)c2)CCC1=O (stereo not shown)
Second: COc1ccc(C(O)(CCC(C)C)C(CN2CCOCC2)c2ccccc2)cc1.Cl (stereo not shown)
The “hERG current change (%, negative = inhibition) at 10uM” value of the first is lower: -38.1% for the first, 6.32% for the second.

First: NC(=O)CSc1nc(-c2ccccc2)c(-c2ccccc2)o1
Second: CN1CCN(c2nc(-c3ccccc3)nc(-c3ccccc3)c2C#N)CC1
The “hERG current change (%, negative = inhibition) at 10uM” value of the first is lower: -1.06% for the first, 1.72% for the second.

Going from `Cc1nc(Nc2ccccc2O)c2oc3ccccc3c2n1` to `O=c1c2ccccc2nc(-c2ccccc2)n1Cc1ccc(Cl)cc1`, the “hERG current change (%, negative = inhibition) at 10uM” value falls from 13.3% to -15.7%.

Compared with `O=C1c2ccc(Oc3ccc([N+](=O)[O-])cc3)cc2C(=O)N1c1ccncc1`, `O=C1c2cccc3c(N4CCOCC4)c([N+](=O)[O-])cc(c23)C(=O)N1c1cccc2ccccc12` is higher in “hERG current change (%, negative = inhibition) at 10uM” value: 5.31% for the first, 7% for the second.

Compared with `O=C(/C=C/c1cccs1)N1CCOCC1`, `O=C(Nc1ccc(F)cc1F)N1CCN(c2ncccn2)CC1` is lower in “hERG current change (%, negative = inhibition) at 10uM” value: 4.89% for the first, -8.77% for the second.

Going from `Cc1noc2ncnc(Oc3ccc(C(C)(C)C)cc3)c12` to `CCC(C(=O)NCc1ccc(C)o1)n1nc(C)c2c(C)n(-c3ccccc3)nc2c1=O` (stereo not shown), the “hERG current change (%, negative = inhibition) at 10uM” value falls from 13.7% to 1.61%.

Compared with `c1ccc2[nH]c(-c3cnco3)cc2c1`, `COc1cccc(-c2nc3n(n2)C(c2ccc4c(c2)OCO4)C(C(N)=O)=C(C)N3)c1` (stereo not shown) is higher in “hERG current change (%, negative = inhibition) at 10uM” value: -1.31% for the first, 1.05% for the second.

First: Cc1c(NC(=O)c2cccc(NC(=O)Cc3ccc(F)cc3)c2)c(=O)n(-c2ccccc2)n1C
Second: O=C(O)C(F)(F)C(NCc1ccccc1)c1ccccc1 (stereo not shown)
The “hERG current change (%, negative = inhibition) at 10uM” value of the first is lower: 4.54% for the first, 6.62% for the second.

First: CC(C)CC(=O)NCCc1ccncc1
Second: Cl.NCCc1ccc(S(=O)(=O)F)cc1
The “hERG current change (%, negative = inhibition) at 10uM” value of the first is higher: 4.26% for the first, -6.19% for the second.

Going from `Cc1cc(CN(C)C(=O)CCc2nnc(Cc3cccc(C(F)(F)F)c3)o2)on1` to `CN(C)c1ccc(C#Cc2ccc3cc(CCCO)oc(=O)c3c2)cc1`, the “hERG current change (%, negative = inhibition) at 10uM” value rises from 4.52% to 21.3%.

Going from `O=C1Cc2cc(S(=O)(=O)Nc3ccccc3Cl)cc3c2N1CCC3` to `CCc1nnc(NC(=O)C2Cc3ccccc3CN2S(=O)(=O)c2c(C)c(C)cc(C)c2C)s1` (stereo not shown), the “hERG current change (%, negative = inhibition) at 10uM” value falls from 6.73% to -7.19%.

Compared with `Cc1nnsc1SCC(=O)O`, `C=CCn1c(COc2cccc3cccnc23)nnc1SCC(=O)OC` is higher in “hERG current change (%, negative = inhibition) at 10uM” value: -0.15% for the first, 13.6% for the second.

First: CC1Oc2ccccc2N(CC(=O)N2CCc3ccccc32)C1=O (stereo not shown)
Second: COc1ccc(C(=O)c2ccc(OC)cc2O)c(O)c1
The “hERG current change (%, negative = inhibition) at 10uM” value of the first is lower: -9.8% for the first, 10.3% for the second.

Going from `CC(C)C1=C2CCCCC2NC(=O)N1` (stereo not shown) to `C=CCn1c(SCc2csc(C)n2)nc2sc3c(c2c1=O)CCCC3`, the “hERG current change (%, negative = inhibition) at 10uM” value falls from 1.29% to 1.15%.
